PMC9959916
Where a chain is given by its changes, count along the chain named. These are yes or no findings as the source states them, for the method shown. Some results given as binding are weak or reduced against the parent protein; the word gives no strength. Sequences can lack the tags named with a protein.

Protein sequences, listed by entry. Tags and fused reporters are not part of them.
UniProt Q8MKI8: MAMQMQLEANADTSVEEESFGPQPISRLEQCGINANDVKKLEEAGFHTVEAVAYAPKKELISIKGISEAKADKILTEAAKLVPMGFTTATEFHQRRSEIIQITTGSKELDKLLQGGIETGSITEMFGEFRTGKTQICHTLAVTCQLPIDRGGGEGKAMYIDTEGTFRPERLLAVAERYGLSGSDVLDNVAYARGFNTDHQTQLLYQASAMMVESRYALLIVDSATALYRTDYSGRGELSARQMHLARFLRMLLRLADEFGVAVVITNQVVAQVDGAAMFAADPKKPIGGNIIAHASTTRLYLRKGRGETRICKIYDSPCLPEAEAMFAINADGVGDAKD

Experiments:
Test in all cases: two-hybrid; mammalian two-hybrid in HeLa cells: pM (Gal4 DNA-binding domain)-BRCA2 peptide, pVP16-canine RAD51, pG5-Luc firefly luciferase reporter, normalised to Renilla (pRL-TK); read two days after transfection
[1] = target: T1, Gal4 DNA-binding domain-fused cBRC1-HCR-BRC2 I1110M (canine (Canis lupus familiaris)) (UniProt Q8MKI9)
T1 sequence: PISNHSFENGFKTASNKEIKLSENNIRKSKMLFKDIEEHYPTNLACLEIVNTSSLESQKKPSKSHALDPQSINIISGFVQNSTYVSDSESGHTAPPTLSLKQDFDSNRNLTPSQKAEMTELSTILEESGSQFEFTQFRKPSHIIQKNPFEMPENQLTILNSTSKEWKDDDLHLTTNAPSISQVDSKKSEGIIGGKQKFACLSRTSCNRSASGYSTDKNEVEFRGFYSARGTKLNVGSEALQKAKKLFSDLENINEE

[2] = target: T2, Gal4 DNA-binding domain-fused cBRC1-HCR-BRC2 S1105A (canine (Canis lupus familiaris)) (UniProt Q8MKI9)
T2 sequence: T1 sequence with S113A, M118I

[3] = target: T3, Gal4 DNA-binding domain-fused cBRC1-HCR-BRC2 T1127A (canine (Canis lupus familiaris)) (UniProt Q8MKI9)
T3 sequence: T1 sequence with M118I, T135A

[4] = target: T4, Gal4 DNA-binding domain-fused cBRC1-HCR-BRC2 (canine BRCA2 993–1248 aa) (canine (Canis lupus familiaris)) (UniProt Q8MKI9)
T4 sequence: T1 sequence with M118I

[5] = target: T5, Gal4 DNA-binding domain-fused cBRC1-HCR-BRC2 S1105E (canine (Canis lupus familiaris)) (UniProt Q8MKI9)
T5 sequence: T1 sequence with S113E, M118I

[6] = target: T6, Gal4 DNA-binding domain-fused cBRC1-ΔHCR-BRC2 (canine BRCA2 993–1248 aa deleted with 1101–1133 aa) (canine (Canis lupus familiaris)) (UniProt Q8MKI9)
T6 sequence: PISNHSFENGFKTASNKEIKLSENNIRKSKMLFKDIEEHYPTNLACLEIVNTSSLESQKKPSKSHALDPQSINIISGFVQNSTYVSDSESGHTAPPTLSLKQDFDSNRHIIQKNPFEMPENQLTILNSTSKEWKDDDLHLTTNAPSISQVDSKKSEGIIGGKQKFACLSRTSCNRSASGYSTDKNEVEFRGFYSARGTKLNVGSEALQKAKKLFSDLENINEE

[7] = target: T7, Gal4 DNA-binding domain-fused cBRC1-HCR-BRC2 3A (S1105A, S1122A, T1127A) (canine (Canis lupus familiaris)) (UniProt Q8MKI9)
T7 sequence: T1 sequence with S113A, M118I, S130A, T135A

Measured: binding

VP16-fused canine RAD51 (from UniProt Q8MKI8 1-339)
binds: all assays above
